From US20240190962A1 (IMMUNOWAKE, published 2024)

Target: T1, human IL-2 receptor (IL-2Rα, IL-2Rβ, IL-2Rγ) (human, UniProt P01589 22-272; P14784 27-551; P31785 23-369)
T1 sequence (looked up) 1: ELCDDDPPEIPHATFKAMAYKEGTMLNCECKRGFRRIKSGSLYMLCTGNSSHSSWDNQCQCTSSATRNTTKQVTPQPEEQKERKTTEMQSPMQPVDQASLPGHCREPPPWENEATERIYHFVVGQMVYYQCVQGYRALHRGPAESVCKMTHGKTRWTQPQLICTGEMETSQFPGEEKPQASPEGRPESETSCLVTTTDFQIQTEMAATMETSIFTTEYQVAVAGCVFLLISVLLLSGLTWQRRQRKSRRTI
T1 sequence (looked up) 2: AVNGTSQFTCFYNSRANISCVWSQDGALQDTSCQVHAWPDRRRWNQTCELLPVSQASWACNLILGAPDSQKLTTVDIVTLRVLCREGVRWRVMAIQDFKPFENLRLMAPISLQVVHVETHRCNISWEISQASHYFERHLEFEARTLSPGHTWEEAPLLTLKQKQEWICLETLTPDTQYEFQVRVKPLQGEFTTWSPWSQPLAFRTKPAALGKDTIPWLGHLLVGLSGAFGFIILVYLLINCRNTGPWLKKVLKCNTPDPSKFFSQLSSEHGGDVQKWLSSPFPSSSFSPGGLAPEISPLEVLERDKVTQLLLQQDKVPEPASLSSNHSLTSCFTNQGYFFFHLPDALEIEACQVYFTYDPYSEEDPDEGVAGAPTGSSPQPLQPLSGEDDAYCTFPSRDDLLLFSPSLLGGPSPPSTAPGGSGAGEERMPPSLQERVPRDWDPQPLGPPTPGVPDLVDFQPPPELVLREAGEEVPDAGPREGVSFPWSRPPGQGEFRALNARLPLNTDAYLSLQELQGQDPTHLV
T1 sequence (looked up) 3: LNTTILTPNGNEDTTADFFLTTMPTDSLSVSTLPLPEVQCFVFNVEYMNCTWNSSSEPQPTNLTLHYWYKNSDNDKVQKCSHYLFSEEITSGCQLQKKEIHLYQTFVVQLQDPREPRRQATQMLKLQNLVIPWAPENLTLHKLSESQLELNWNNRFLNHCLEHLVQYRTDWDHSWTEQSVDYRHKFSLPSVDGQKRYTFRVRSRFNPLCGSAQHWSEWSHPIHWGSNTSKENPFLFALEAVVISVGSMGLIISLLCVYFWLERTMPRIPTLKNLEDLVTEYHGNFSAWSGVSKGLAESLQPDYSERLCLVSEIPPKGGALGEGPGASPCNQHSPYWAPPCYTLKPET
Experiment: cell-based or functional assay

- Percent IL-2 signal transduction (HEK-IL-2 reporter assay): 0%
- Percent IL-2 signal transduction (HEK-PD-1-IL-2 reporter assay): 0%
B1: parental PD-L2-Fc fusion protein (Fc fusion)
chain: LFTVTVPKELYIIEHGSNVTLECNFDTGSHVNLGAITASLQKVENDTSPHRERATLLEEQLPLGKASFHIPQVQVRDEGQYQCIIIYGVAWDYKYLTLKVKASYRKINTHILKVPETDEVELTCQATGYPLAEVSWPNVSVPANTSHSRTPEGLYQVTSVLRLKPPPGRNFSCVFWNTHVRELTLASIDLQSQMEPRTHPT[letters of human IgG1 Fc with changes left out]
